In all, about 120,000 compounds went through this assay and about 5,300 (4.4%) were called active. Inconclusive results, whose numbers are uncertain, are shown with a selection of clear calls. Calls follow the shape of the dose curve; as a rule, active = well fitted inhibition curve with a large enough effect; inconclusive = small, poorly fitted or top-dose-only effect; inactive = no such curve, though single readings can be large or run the other way. Potencies beside an inconclusive call are fits to weak or partial responses and may not hold up.
Test: qHTS Primary assay for Inhibitors of Plasmodium falciparum Dd2 growth in vitro; also: nearly all actives have a fitted effect of over 65% in size;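 as to activity, negative = inhibition: plate controls were DMSO vehicle for no effect and reference drug for full effect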
Conditions: P. falciparum Dd2 growth, SYBR Green, 72 h; activity, negative = inhibition: at 28.9 µM (top of the series) unless noted; series mostly up to 28.9 µM
Procedure, shortened: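 Infected erythrocytes (Dd2, 0.3% parasitemia, 2.5% hematocrit final) are added to compound in RPMI-1640/Albumax II medium, grown 72 h at 37C in low oxygen, then lysed with saponin/Triton-X containing SYBR Green and read by fluorescence.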
Potency is read from the fitted curve at half-maximal effect; tags tell the direction and shape of the fitted curve.

| Structure (SMILES) | Potency | activity, negative = inhibition | outcome |
| --- | --- | --- | --- |
| CC(C)CN(CCNC(=O)c1cc(-c2ccc(Cl)s2)nc2ccccc12)CC(C)C | inconclusive: 1 µM [inhibitor, full curve] |  |  |
| CCCN(C)C(=O)Cc1ccc(N(Cc2ccc(F)cc2)C(=O)c2ccco2)cc1 |  | inactive: -1.23% |  |
| COc1cccc(-c2cc(C(=O)NCc3c(C)cc(C)[nH]c3=O)c3c(c2)N(C(C)C)CCO3)c1OC | inconclusive: 3.98 µM [inhibitor, single point] |  |  |
| Cc1ccsc1CN1CCc2nc(N3CCN(c4ccccc4F)CC3)ncc2C1 | inconclusive: 8.91 µM [inhibitor, partial curve, poor fit] |  |  |
| O=C(c1ccccc1Cl)N1CCc2c(nc3cc(-c4ccccc4)[nH]n3c2=O)C1 | inconclusive: 7.94 µM [inhibitor, single point] |  |  |
| CNC(=O)c1ccc(CSc2nc3ccncc3n2Cc2ccc(C)cc2)cc1 | inconclusive: 11.2 µM [inhibitor, single point] |  |  |
| Cc1ccc(C(=O)N2[C@H]3CC[C@@H]2c2cnc(-c4ccccc4)nc2C3)cn1 | inconclusive: 1.58 µM [inhibitor, full curve, poor fit] |  |  |
| CCc1cccc(NC(=O)Cn2c(N3CCOCC3)nc(COC)cc2=O)c1 |  |  | inactive |
| COC[C@H]1CCCN1C(=O)CC[C@H]1CNC(=O)[C@@H]2[C@@H](CCN2Cc2cccs2)N1C |  | inactive: 0.705% [at 44.1 µM] |  |
| COc1cccc(CNC(=O)C2Cn3cccc3C(=O)N2Cc2cccnc2)c1 (centres undefined) | inconclusive: 20 µM [inhibitor, single point] |  |  |
| CC(C)CCN1C(=O)CC[C@]2(C(=O)N(C)Cc3ccccc3)CCCC[C@@H]12 | inconclusive: 11.2 µM [inhibitor, partial curve, poor fit] |  |  |
| O=C(Cc1ccc(F)cc1)N1CCCC(c2nn(-c3ccccc3)c(=O)[nH]2)C1 (centres undefined) | inconclusive: 0.398 µM [inhibitor, partial curve, poor fit] |  |  |
| COc1ccc(CCNC(=O)Cn2cc(C(=O)c3ccc(F)cc3)c(=O)c3ccc(C)nc32)cc1OC |  |  | inactive |
| C=CCN(Cc1cccc(OCC)c1)C(=O)CC1CNCCO1 (centres undefined) | inconclusive: 7.08 µM [inhibitor, partial curve, poor fit] |  |  |
| COc1ccc(-c2cc([C@H]3CN4CC[C@H]3C[C@@H]4CNC(=O)C3CCC3)n(C)n2)cc1OC | inconclusive: 3.55 µM [inhibitor, single point] |  |  |
| O=C(NCc1cccs1)c1cc2n(n1)CC(c1ccc3c(c1)OCO3)OC2 (centres undefined) |  |  | inactive |
| COCc1cc(C)nc2sc(C(=O)Nc3cc(C)ccc3F)c(N)c12 | inconclusive: 12.6 µM [inhibitor, partial curve] |  |  |
| CC(C)(C)C(=O)Cn1c(=O)n(-c2ccc(Cl)c(Cl)c2)c(=O)c2c3c(sc21)CCCC3 | inconclusive: 10 µM [inhibitor, single point] |  |  |
| COc1ccc(Nc2cnc3ccc(-c4ccc(OC)nc4)nn23)cn1 | inconclusive: 5.62 µM [inhibitor, single point] |  |  |
| COc1ccccc1-c1cnc(Nc2ccc(Cl)cn2)c2c1CCO2 | inconclusive: 15.8 µM [inhibitor, single point] |  |  |
| COc1cccc([S+](=O)([O-])N2CCCC3(C2)C(=NC2CCCCC2)NC(=O)N3c2cc(F)cc(F)c2)c1 (centres undefined) | inconclusive: 10 µM [inhibitor, single point] |  |  |
| Cc1ccc(CN2CC3(Cc4ccccc4NC3=O)C2)cc1 | inconclusive: 31.6 µM [inhibitor, single point] |  |  |
| O=C1CC(c2ccccc2)N(C(=O)Cc2cccnc2)CCCCCN1 (centres undefined) | inconclusive: 10 µM [inhibitor, single point] |  |  |

| Structure (SMILES) | Potency | activity, negative = inhibition | outcome |
| --- | --- | --- | --- |
| CCc1cccc(-n2nnnc2N2CCN(C(=O)NC3CCCCC3)CC2)c1 |  | inactive: 14.8% |  |
| O=C(N[C@H]1[C@H](O)[C@H](O)C[C@@H]1c1ccc(C(F)(F)F)nc1)c1cc2ccccc2s1 | inconclusive: 31.6 µM [inhibitor, single point] |  |  |
| Cn1cnc2cc(-c3cccc4[nH]ccc34)cc(C(=O)NCc3cccnc3)c21 |  |  | inactive [at 44.1 µM] |
| Cc1ccc(NC(=O)Nc2ccc(C)n(CC(=O)NCCC(C)C)c2=O)cc1 |  |  | inactive |
| O=C(CCc1ccccc1)NCC(=O)N1CCCCCCNC(=O)CC1c1ccccc1 (centres undefined) | inconclusive: 8.91 µM [inhibitor, single point] |  |  |
| O=C(CN1CC2CC(C1)[C@H]1CCCC(=O)N1C2)NCc1ccc(Cl)cc1 (some centres undefined) |  | inactive: -15.5% |  |
| COc1cccc(CNC(=O)C(C)(C)C2CCOCC2)c1OC |  | inactive: 6.05% |  |
| O=C(Nc1ccccc1)N1CCN(C2CCNCC2)C(=O)C1 |  | inactive: -7.95% |  |
| COc1ccc(-c2cnc3[nH]cc(CC(=O)N4CCNC(=O)C4)c3c2)cc1 | active: 7.94 µM |  |  |
| O=C(NCc1cccc(Cl)c1)C1CCCN(c2ncnc3onc(-c4ccc(F)cc4)c23)C1 (centres undefined) | inconclusive: 8.91 µM [inhibitor, single point] |  |  |
| Cc1ccc(-c2noc(CCCc3nc(-c4cccnc4)no3)n2)nn1 |  |  | inactive |
| Cc1cccc(Cn2nnc3c(=O)[nH]c(C4CCN(C(=O)c5ccc(F)cc5)CC4)nc32)c1 | inconclusive: 14.1 µM [inhibitor, partial curve, poor fit] |  |  |
| CN(C(=O)C1CC1)C1CCCc2ccccc21 (centres undefined) | inconclusive: 2.82 µM [inhibitor, partial curve, poor fit] |  |  |
| O=C(Cc1cccs1)N1CC[C@H]2COC(=O)N2c2cc(F)ccc2C1 |  | inactive: -10.7% [at 44.1 µM] |  |
| Cc1cc(C)c(C(=O)N2CCCC(CCc3ccccc3C)C2)c(=O)[nH]1 (centres undefined) | inconclusive: 11.2 µM [inhibitor, partial curve] |  |  |
| CCOc1ccc2c(n1)CCN(C(=O)c1ccc(C)s1)C2 | inconclusive: 10 µM [inhibitor, partial curve] |  |  |
| Cc1ccc2oc(-c3cc(NC(=O)/C=C/c4ccco4)ccc3Cl)nc2c1 | inconclusive: 14.1 µM [inhibitor, single point] |  |  |
| CCCc1ccc(S(=O)(=O)N2CCN(C3CCN(CCC(C)C)C3=O)CC2)cc1 (centres undefined) | active: 5.62 µM |  |  |
| COCCN(C)Cc1c(C(=O)N(C)Cc2ccccc2)nc2ccccn12 |  | inactive: -17.5% |  |
| COc1cc2c(cc1OC)C(COc1ccc3c(C)cc(=O)oc3c1)N(C(=O)CC(C)C)CC2 (centres undefined) | active: 11.2 µM |  |  |
| Cc1ccc(C)c(-c2cc3c(=O)n(CCNC(=O)c4ccc(F)cc4Cl)ccn3n2)c1 |  | inactive: -4.24% |  |
| COCc1noc([C@@H]2CC(F)(F)CN2C(=O)c2cnc(C)cn2)n1 |  | inactive: -3.94% |  |
| CC1CCCCN1CCCNC(=O)Cn1ncc2c3ccccc3n(Cc3ccccc3F)c2c1=O (centres undefined) | active: 5.01 µM |  |  |

| Structure (SMILES) | Potency | activity, negative = inhibition | outcome |
| --- | --- | --- | --- |
| Cc1ccc(-c2nocc2CCC(=O)N2CCN(c3ccccc3F)CC2)cc1 |  |  | inactive |
| COc1ccc(-c2nn(-c3ccccc3C)cc2CN2CCCN(C)CC2)cc1F | active: 7.94 µM |  |  |
| COCCN1C(=O)CC[C@]2(C(=O)NCc3ccccc3OC)CCCC[C@@H]12 | inconclusive: 11.2 µM [inhibitor, partial curve] |  |  |
| CN(C)c1ccc(C(=O)NCc2ccc3c(c2)CCN3C(=O)c2ccccc2)cc1 | inconclusive: 17.8 µM [inhibitor, single point] |  |  |
| Cc1ccc(S(N)(=O)=O)cc1C(=O)N[C@H]1[C@H]2CCO[C@H]2[C@@H]1N1CCCC1 |  | inactive: -3.33% |  |
| COc1ccc(C(=O)Nc2ccc([C@H]3OCC(=O)N(C)[C@@H]3CO)cc2)cc1 |  | inactive: -8.31% [at 44.1 µM] |  |
| Cc1ccc(C)c(Nc2nn3c(=O)c4ccc(C(=O)NCc5cccs5)cc4nc3s2)c1 | inconclusive: 15.8 µM [inhibitor, single point] |  |  |
| COc1ccc(C2Cn3cnc(-c4nc(-c5ccc(OC)cc5OC)no4)c3CO2)cc1 (centres undefined) | inconclusive: 2 µM [inhibitor, partial curve, poor fit] |  |  |
| CN(C1CCCCC1)S(=O)(=O)c1ccc2c(c1)c(=O)c(C(=O)NCc1ccc(Cl)cc1)cn2C | inconclusive: 3.55 µM [inhibitor, single point] |  |  |
| O=C(CN1C(=O)CC(c2ccc(F)cc2)=Nc2ccccc21)NCc1ccccc1Cl | inconclusive: 10 µM [inhibitor, single point] |  |  |
| O=C(Cc1ccccc1F)N1CCC2(CCCCO2)CC1 |  | inactive: 9.11% |  |
| CN1CCN(CC(=O)N2CCCCC2)CC12CCC(=O)N(CC1CC1)CC2 (centres undefined) |  | inactive: -8.06% |  |
| COCCOCc1nc(C2CCN(C(=O)Nc3ccc(OC)c(F)c3)CC2)no1 | inconclusive: 17.8 µM [inhibitor, single point] |  |  |
| CCCCc1nn(CC(=O)N2CCSCC2)c(=O)n1CCc1ccccc1 |  | inactive: -0.718% |  |
| CNC(=O)C(C)(C)N1CCC[C@H]1C(=O)NCc1ccccc1 |  | inactive: 61.7% [at 44.1 µM] |  |
| CCCCNC(=O)[C@@H]1CCCC[C@@H]1C(=O)N1CC(n2nc(C)cc2C)C1 |  | inactive: -0.299% |  |
| Cn1c(Cn2ccnc2)nnc1C1CCCN(C(=O)CSCC2CC2)C1 (centres undefined) |  | inactive: -1.34% |  |
| Cc1ccc(CN2CCc3oc(C)c(C(=O)N(C)CC(=O)N4CCCC4)c3C2)cc1 | inconclusive: 2 µM [inhibitor, full curve, poor fit] |  |  |
| COc1ccc(N(C)C(=O)C2CCN(S(=O)(=O)c3cc(Br)cc4c3N(C(C)=O)CC4)CC2)cc1 | inconclusive: 3.98 µM [inhibitor, partial curve, poor fit] |  |  |
| Cc1ccccc1NC(=O)c1c(NC(=O)c2cccs2)sc2c1CCC(C)C2 (centres undefined) | inconclusive: 1.78 µM [inhibitor, full curve] |  |  |
| Cc1ccccc1Nc1c(-c2ccc(N3CCOCC3)cc2)nc2ccc(Cl)cn12 | active: 8.91 µM |  |  |
| Fc1ccc(-c2[nH]ncc2CN(Cc2cccnc2)Cc2cccnc2)cc1 | inconclusive: 11.2 µM [inhibitor, partial curve, poor fit] |  |  |
| COc1ccc(CN2CCc3nc(C(=O)Nc4ccc(Cl)cc4)oc3CC2)cn1 | active: 2.51 µM |  |  |

From PubChem BioAssay AID1347417 (National Center for Advancing Translational Sciences (NCATS), 2020)
